Measurements from the supplement of paper PMC12217912.
Some of the results follow. The full chains were built here from the parent and the listed change. Values near 0.05 are background.

B1: TEV protease; numbered along this chain (parent)
chain: MGESLFKGPRDYNPISSSICHLTNESDGHTTSLYGIGFGPFIITNKHLFRRNNGTLVVQSLHGVFKVKDTTTLQQHLVDGRDMIIIRMPKDFPPFPQKLKFREPQREERICLVTTNFQTKSMSSMVSDTSCTFPSGDGIFWKHWIQTKDGQCGSPLVSTRDGFIVGIHSASNFTNTNNYFTSVPKNFMELLTNQEAQQWVSGWRLNADSVLWGGHKVFMVKPEEPFQPVKEATQL

Variants of: B1
Assay: raw area under fraction-flipped curve 0-4 h after induction (AUC4h, not background-subtracted), DNA-recorder readout of cleavage of the substrate (dimensionless); higher = more cleavage of the substrate by the protease variant
Conditions: temperature: 34 °C; time window: 0-4 h after rhamnose induction
Method: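 In vivo DNA recorder in E. coli TOP10(DE3) ΔrhaA at 34 °C. Each TEVp single-site mutant (parent TEVp 0) is paired with a single-site variant of the 7-mer TEVs (canonical ENLYFQ|S). The substrate sits between flexible linkers in a Bxb1-sfGFP-TEVs-SsrA fusion, so cleavage stabilises Bxb1 and speeds flipping of a recombination array, read by NGS. The value is the raw area under the fraction-flipped curve over 0-4 h after rhamnose induction (AUC4h), with ≥20 reads per time point. It is not background-subtracted; inactive controls average about 0.047.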
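Also: Bxb1 expression induced with 0.2% (w/v) L-rhamnose at OD600 near 0.5, cultures sampled hourly, flipped fraction per protease–substrate barcode pair counted by paired-end Illumina sequencing.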

Row | Variant | area with substrate EALYFQS | area with substrate ECLYFQS | area with substrate EDLYFQS | area with substrate EELYFQS | area with substrate EFLYFQS | area with substrate EGLYFQS | area with substrate EHLYFQS | area with substrate EILYFQS | area with substrate EKLYFQS | area with substrate ELLYFQS | area with substrate EMLYFQS | area with substrate EQLYFQS | area with substrate ERLYFQS | area with substrate ESLYFQS | area with substrate ETLYFQS | area with substrate EVLYFQS | area with substrate EYLYFQS | area with substrate EPLYFQS | area with substrate EWLYFQS
1 | V57Y | 0.127 | 0.0953 | 0.0612 | 0.116 | 0.09 | 0.0874 | 0.108 | 0.0839 | 0.111 | 0.0882 | 0.105 | 0.11 | 0.077 | 0.105 | 0.102 | 0.0907 | 0.114 | – | –
2 | V57M | 0.12 | 0.0951 | 0.138 | – | – | 0.086 | 0.0952 | 0.106 | 0.0915 | 0.0887 | 0.126 | 0.121 | 0.102 | 0.112 | – | 0.0821 | 0.117 | 0.118 | 0.105
3 | V64N | 0.148 | 0.0972 | 0.122 | 0.114 | – | 0.0784 | 0.131 | 0.0863 | – | 0.0957 | 0.0973 | 0.123 | 0.0725 | 0.101 | – | 0.115 | 0.0794 | – | 0.0919
4 | L61A | 0.11 | 0.102 | 0.0981 | 0.114 | – | 0.0703 | – | 0.105 | – | 0.0851 | – | 0.107 | 0.0767 | 0.101 | – | – | 0.0923 | – | 0.0915
5 | F49H | 0.0619 | 0.0539 | – | 0.0747 | – | 0.0626 | – | – | 0.0646 | – | – | 0.0643 | – | 0.0641 | 0.0696 | 0.0421 | 0.0572 | – | –
6 | N52S | 0.071 | 0.0617 | 0.0989 | 0.0793 | 0.115 | 0.0693 | 0.0699 | 0.0689 | 0.0679 | – | 0.0912 | 0.0741 | 0.0999 | 0.074 | 0.103 | 0.0867 | – | 0.0742 | –
7 | N52F | 0.0688 | 0.0674 | 0.055 | 0.0664 | – | – | – | 0.055 | 0.0542 | 0.0699 | 0.0703 | 0.0643 | 0.0636 | 0.0707 | 0.0604 | 0.0621 | – | 0.0795 | –
8 | N52T | 0.116 | 0.0801 | 0.0664 | 0.0989 | – | 0.0799 | 0.0765 | 0.067 | 0.0722 | 0.0728 | 0.0876 | 0.091 | 0.0779 | 0.0711 | – | 0.0812 | – | 0.0738 | 0.0672
9 | N52Y | 0.0926 | 0.0692 | 0.0804 | 0.0735 | 0.0653 | 0.064 | 0.0851 | 0.0617 | 0.0798 | 0.0549 | 0.0696 | 0.116 | 0.0642 | 0.0779 | – | 0.0621 | 0.0693 | – | –
10 | N52M | 0.0387 | 0.0803 | – | 0.0371 | – | 0.0553 | – | 0.0538 | – | – | 0.0382 | 0.0691 | 0.0675 | 0.0568 | – | 0.0654 | 0.0654 | – | –
11 | T71A | 0.127 | 0.0997 | 0.117 | 0.123 | 0.0883 | 0.0806 | 0.109 | 0.0853 | 0.103 | – | 0.0931 | 0.0867 | 0.0718 | 0.0832 | 0.118 | 0.105 | – | 0.086 | 0.066
12 | T55E | 0.124 | 0.101 | – | 0.115 | 0.0891 | – | 0.141 | 0.101 | 0.0953 | 0.113 | 0.105 | 0.127 | 0.0965 | – | 0.102 | 0.0905 | – | 0.117 | 0.115
13 | T55I | 0.108 | 0.0997 | 0.0864 | 0.11 | – | 0.0841 | 0.092 | 0.0955 | – | – | 0.0956 | – | 0.0954 | 0.0746 | – | 0.097 | – | – | –
14 | F65E | 0.108 | 0.0799 | 0.116 | 0.104 | 0.0795 | – | 0.075 | 0.0768 | 0.0895 | 0.0776 | – | – | 0.101 | 0.0922 | – | 0.0823 | 0.111 | 0.107 | 0.104
15 | F65R | 0.096 | 0.085 | 0.124 | 0.102 | 0.1 | 0.108 | 0.0668 | 0.0891 | 0.119 | – | 0.0899 | 0.0866 | 0.106 | 0.143 | 0.0889 | 0.0974 | – | 0.119 | –
16 | V67R | 0.0608 | 0.0526 | 0.0688 | – | – | 0.0764 | 0.0701 | 0.003 | 0.0773 | 0.0615 | 0.0548 | – | 0.0683 | – | – | 0.0727 | – | – | 0.0643
17 | S60F | 0.155 | 0.0776 | – | 0.107 | – | 0.0921 | 0.105 | 0.103 | 0.0935 | 0.0884 | – | 0.119 | 0.097 | 0.111 | – | – | – | 0.118 | 0.0891
18 | S60V | 0.115 | 0.101 | 0.117 | 0.0953 | 0.0925 | 0.0784 | 0.153 | 0.0944 | 0.0894 | 0.0888 | 0.113 | 0.103 | 0.0884 | 0.095 | 0.0891 | 0.0829 | 0.0835 | 0.101 | 0.0988
19 | Q59V | 0.104 | 0.125 | 0.105 | 0.111 | – | 0.104 | – | 0.115 | 0.106 | – | 0.12 | – | – | 0.115 | 0.114 | – | – | – | –
20 | K66F | 0.114 | 0.1 | 0.147 | – | 0.111 | – | – | 0.0907 | – | 0.102 | 0.0928 | – | 0.0934 | 0.104 | 0.112 | 0.102 | – | – | 0.0961
21 | K66R | 0.135 | 0.0819 | 0.13 | 0.138 | 0.102 | – | – | – | – | – | – | 0.148 | 0.0956 | 0.135 | 0.105 | 0.121 | 0.113 | – | 0.0994
22 | K46F | 0.0664 | 0.0693 | 0.119 | – | – | – | 0.0691 | 0.0559 | – | – | 0.0636 | 0.0892 | 0.0724 | 0.0747 | – | 0.0627 | – | 0.0871 | 0.0541
23 | K46E | 0.0604 | 0.0725 | 0.0793 | 0.052 | 0.0692 | 0.0497 | 0.0423 | 0.0464 | 0.0553 | 0.047 | 0.06 | 0.0572 | 0.0539 | 0.0624 | – | 0.0525 | 0.053 | 0.0509 | 0.0527
24 | K46R | 0.132 | 0.0871 | 0.133 | 0.123 | 0.0975 | – | 0.101 | 0.092 | 0.0537 | 0.0752 | 0.095 | 0.0672 | 0.0795 | 0.091 | 0.118 | 0.0993 | 0.099 | 0.12 | 0.0817
